These are yes or no findings as the source states them, for the method shown. Binding seen in cells or lysates may run through a third protein. Some entries that bind do so weakly or less than the wild type.
How the values were obtained:
Assay in all cases: co-IP; transiently transfected HEK293T/HEK293FT cells; CoIP buffer 40 mM HEPES, 120 mM NaCl, 10 mM MgCl2, 0.3% CHAPS, pH 7.4; 3xflag beads 2-4 h; western blot
[1] = target: RGα2 full-length (RGα2^fl), transiently expressed in HEK293 cells for co-immunoprecipitation (UniProt Q2PPJ7)
[2] = target: RGβ^D3 (V29E, V33Q, V37E) (UniProt Q86X10)
[3] = target: RGβ^D4 (V29E, V33Q, V37E, W65R), transiently expressed in HEK293FT cells for co-immunoprecipitation (UniProt Q86X10)

Protein sequences, listed by entry. Tags and fused reporters are not part of them.
UniProt Q2PPJ7: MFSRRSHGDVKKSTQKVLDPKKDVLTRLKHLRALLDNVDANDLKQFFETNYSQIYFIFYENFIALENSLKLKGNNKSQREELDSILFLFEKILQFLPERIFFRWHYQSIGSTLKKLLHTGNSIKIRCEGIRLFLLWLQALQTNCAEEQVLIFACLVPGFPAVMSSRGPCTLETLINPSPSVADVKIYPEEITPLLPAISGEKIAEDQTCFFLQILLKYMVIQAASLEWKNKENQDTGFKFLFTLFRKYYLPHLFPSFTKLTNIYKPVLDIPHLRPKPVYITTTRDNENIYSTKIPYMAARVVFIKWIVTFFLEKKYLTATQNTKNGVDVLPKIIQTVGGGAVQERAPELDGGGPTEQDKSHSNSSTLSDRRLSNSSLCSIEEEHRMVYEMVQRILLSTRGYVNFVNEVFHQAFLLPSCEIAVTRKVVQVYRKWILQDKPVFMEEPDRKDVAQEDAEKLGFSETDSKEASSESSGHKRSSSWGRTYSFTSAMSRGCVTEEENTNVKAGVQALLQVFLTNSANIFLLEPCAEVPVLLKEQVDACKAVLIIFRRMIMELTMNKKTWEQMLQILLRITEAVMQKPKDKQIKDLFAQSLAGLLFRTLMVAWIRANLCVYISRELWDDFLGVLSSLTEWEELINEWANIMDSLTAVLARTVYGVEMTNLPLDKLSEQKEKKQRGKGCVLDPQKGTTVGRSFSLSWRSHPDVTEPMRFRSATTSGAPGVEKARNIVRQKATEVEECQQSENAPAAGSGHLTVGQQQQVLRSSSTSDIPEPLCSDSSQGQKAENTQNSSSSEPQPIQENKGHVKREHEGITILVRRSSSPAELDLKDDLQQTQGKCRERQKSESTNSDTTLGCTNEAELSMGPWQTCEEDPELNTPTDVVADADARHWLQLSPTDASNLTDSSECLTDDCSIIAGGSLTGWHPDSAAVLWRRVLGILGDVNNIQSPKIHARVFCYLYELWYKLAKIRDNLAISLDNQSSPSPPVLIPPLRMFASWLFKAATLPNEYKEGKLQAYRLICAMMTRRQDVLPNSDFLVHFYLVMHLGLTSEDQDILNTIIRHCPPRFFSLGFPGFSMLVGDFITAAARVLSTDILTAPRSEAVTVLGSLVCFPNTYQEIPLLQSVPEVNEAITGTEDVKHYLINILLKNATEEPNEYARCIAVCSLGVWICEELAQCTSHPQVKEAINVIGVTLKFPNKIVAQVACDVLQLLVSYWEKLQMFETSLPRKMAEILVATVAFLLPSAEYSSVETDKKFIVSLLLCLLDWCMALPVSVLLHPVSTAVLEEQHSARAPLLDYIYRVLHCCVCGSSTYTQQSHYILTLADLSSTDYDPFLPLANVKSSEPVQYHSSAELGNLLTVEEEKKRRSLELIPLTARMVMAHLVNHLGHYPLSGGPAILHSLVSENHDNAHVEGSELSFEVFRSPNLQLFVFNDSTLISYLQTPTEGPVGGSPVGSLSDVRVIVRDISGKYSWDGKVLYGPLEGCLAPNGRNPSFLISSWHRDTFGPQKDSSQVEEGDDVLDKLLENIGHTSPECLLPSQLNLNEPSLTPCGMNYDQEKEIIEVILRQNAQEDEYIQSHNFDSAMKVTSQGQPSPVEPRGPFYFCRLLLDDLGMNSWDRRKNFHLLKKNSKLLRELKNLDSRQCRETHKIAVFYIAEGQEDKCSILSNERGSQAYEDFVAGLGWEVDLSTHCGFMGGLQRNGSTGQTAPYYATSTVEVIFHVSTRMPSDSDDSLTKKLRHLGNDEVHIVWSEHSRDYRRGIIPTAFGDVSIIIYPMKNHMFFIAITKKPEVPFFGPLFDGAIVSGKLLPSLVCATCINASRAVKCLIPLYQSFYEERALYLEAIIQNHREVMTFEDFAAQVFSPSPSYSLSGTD

Row | binding [1] | binding [2] | binding [3] | Binder
1 | binds | no binding | – | RGβ^D3 (V29E, V33Q, V37E) (protein, UniProt Q86X10 1-1494) MYSEWRSLHLVIQNDQGHTSVLHSYPESEGREQANAEVRPLGQVLGTPSVAGSENLLKTDKEVKWTMEVICYGLTLPLDGETVKYCVDVYTDWIMALVLPKDSIPLPVIKEPNQYVQTILKHLQNLFVPRQEQGSSQIRLCLQVLRAIQKLARESSLMARETWEVLLLFLLQINDILLAPPTVQGGIAENLAEKLIGVLFEVWLLACTRCFPTPPYWKTAKEMVANWRHHPAVVEQWSKVICALTSRLLRFTYGPSFPAFKVPDEDASLIPPEMDNECVAQTWFRFLHMLSNPVDLSNPAIISSTPKFQEQFLNVSGMPQELNQYPCLKHLPQIFFRAMRGISCLVDAFLGISRPRSDSAPPTPVNRLSMPQSAAVSTTPPHNRRHRAVTVNKATMKTSTVSTAHASKVQHQTSSTSPLSSPNQTSSEPRPLPAPRRPKVNSILNLFGSWLFDAAFVHCKLHNGINRDSSMTAITTQASMEFRRKGSQMSTDTMVSNPMFDASEFPDNYEAGRAEACGTLCRIFCSKKTGEEILPAYLSRFYMLLIQGLQINDYVCHPVLASVILNSPPLFCCDLKGIDVVVPYFISALETILPDRELSKFKSYVNPTELRRSSINILLSLLPLPHHFGTVKSEVVLEGKFSNDDSSSYDKPITFLSLKLRLVNILIGALQTETDPNNTQMILGAMLNIVQDSALLEAIGCQMEMGGGENNLKSHSRTNSGISSASGGSTEPTTPDSERPAQALLRDYALNTDSAAGLLIRSIHLVTQRLNSQWRQDMSISLAALELLSGLAKVKVMVDSGDRKRAISSVCTYIVYQCSRPAPLHSRDLHSMIVAAFQCLCVWLTEHPDMLDEKDCLKEVLEIVELGISGSKSKNNEQEVKYKGDKEPNPASMRVKDAAEATLTCIMQLLGAFPSPSGPASPCSLVNETTLIKYSRLPTINKHSFRYFVLDNSVILAMLEQPLGNEQNDFFPSVTVLVRGMSGRLAWAQQLCLLPRGAKANQKLFVPEPRPVPKNDVGFKYSVKHRPFPEEVDKIPFVKADLSIPDLHEIVTEELEERHEKLRSGMAQQIAYEIHLEQQSEEELQKRSFPDPVTDCKPPPPAQEFQTARLFLSHFGFLSLEALKEPANSRLPPHLIALDSTIPGFFDDIGYLDLLPCRPFDTVFIFYMKPGQKTNQEILKNVESSRTVQPHFLEFLLSLGWSVDVGRHPGWTGHVSTSWSINCCDDGEGSQQEVISSEDIGASIFNGQKKVLYYADALTEIAFVVPSPVESLTDSLESNISDQDSDSNMDLMPGILKQPSLTLELFPNHTDNLNSSQRLSPSSRMRKLPQGRPVPPLGPETRVSVVWVERYDDIENFPLSELMTEISTGVETTANSSTSLRSTTLEKEVPVIFIHPLNTGLFRIKIQGATGKFNMVIPLVDGMIVSRRALGFLVRQTVINICRRKRLESDSYSPPHVRRKQKITDIVNKYRNKQLEPEFYTSLFQEVGLKNCSS
2 | binds | – | no binding | RGβ^D4 (V29E, V33Q, V37E, W65R), transiently expressed in HEK293FT cells for co-immunoprecipitation (protein, UniProt Q86X10 1-1494) MYSEWRSLHLVIQNDQGHTSVLHSYPESEGREQANAEVRPLGQVLGTPSVAGSENLLKTDKEVKRTMEVICYGLTLPLDGETVKYCVDVYTDWIMALVLPKDSIPLPVIKEPNQYVQTILKHLQNLFVPRQEQGSSQIRLCLQVLRAIQKLARESSLMARETWEVLLLFLLQINDILLAPPTVQGGIAENLAEKLIGVLFEVWLLACTRCFPTPPYWKTAKEMVANWRHHPAVVEQWSKVICALTSRLLRFTYGPSFPAFKVPDEDASLIPPEMDNECVAQTWFRFLHMLSNPVDLSNPAIISSTPKFQEQFLNVSGMPQELNQYPCLKHLPQIFFRAMRGISCLVDAFLGISRPRSDSAPPTPVNRLSMPQSAAVSTTPPHNRRHRAVTVNKATMKTSTVSTAHASKVQHQTSSTSPLSSPNQTSSEPRPLPAPRRPKVNSILNLFGSWLFDAAFVHCKLHNGINRDSSMTAITTQASMEFRRKGSQMSTDTMVSNPMFDASEFPDNYEAGRAEACGTLCRIFCSKKTGEEILPAYLSRFYMLLIQGLQINDYVCHPVLASVILNSPPLFCCDLKGIDVVVPYFISALETILPDRELSKFKSYVNPTELRRSSINILLSLLPLPHHFGTVKSEVVLEGKFSNDDSSSYDKPITFLSLKLRLVNILIGALQTETDPNNTQMILGAMLNIVQDSALLEAIGCQMEMGGGENNLKSHSRTNSGISSASGGSTEPTTPDSERPAQALLRDYALNTDSAAGLLIRSIHLVTQRLNSQWRQDMSISLAALELLSGLAKVKVMVDSGDRKRAISSVCTYIVYQCSRPAPLHSRDLHSMIVAAFQCLCVWLTEHPDMLDEKDCLKEVLEIVELGISGSKSKNNEQEVKYKGDKEPNPASMRVKDAAEATLTCIMQLLGAFPSPSGPASPCSLVNETTLIKYSRLPTINKHSFRYFVLDNSVILAMLEQPLGNEQNDFFPSVTVLVRGMSGRLAWAQQLCLLPRGAKANQKLFVPEPRPVPKNDVGFKYSVKHRPFPEEVDKIPFVKADLSIPDLHEIVTEELEERHEKLRSGMAQQIAYEIHLEQQSEEELQKRSFPDPVTDCKPPPPAQEFQTARLFLSHFGFLSLEALKEPANSRLPPHLIALDSTIPGFFDDIGYLDLLPCRPFDTVFIFYMKPGQKTNQEILKNVESSRTVQPHFLEFLLSLGWSVDVGRHPGWTGHVSTSWSINCCDDGEGSQQEVISSEDIGASIFNGQKKVLYYADALTEIAFVVPSPVESLTDSLESNISDQDSDSNMDLMPGILKQPSLTLELFPNHTDNLNSSQRLSPSSRMRKLPQGRPVPPLGPETRVSVVWVERYDDIENFPLSELMTEISTGVETTANSSTSLRSTTLEKEVPVIFIHPLNTGLFRIKIQGATGKFNMVIPLVDGMIVSRRALGFLVRQTVINICRRKRLESDSYSPPHVRRKQKITDIVNKYRNKQLEPEFYTSLFQEVGLKNCSS
